Results published in ChEMBL document CHEMBL1201862, “PubChem BioAssay data set” (2004).
Where “and” joins values, the source holds several entries; their conditions need not be identical. Equal values may be shown once.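 Exposure lasted 48 hours, with cells grown in 96-well plates and compounds tested at five concentrations. GI50 = concentration required for 50% inhibition of growth.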 Calls of active or inactive are those of the source. No stated cut-off is given here; in the data, active = GI50 up to about 1.1 µM and inactive = higher.

What follows are compounds tested on NCI-H322M (assay: NCI anticancer screen, dose series, 48 h).
With `O=[N+]([O-])c1ccc(/C=N/CC2CCCN3CCCCC23)cc1` (stereo not drawn) the GI50 was inactive: > 100 µM.
In the case of `CC[C@H](C)C1=C(OC(C)=O)[N@+]2([O-])Oc3ccc(-c4c(OC(C)=O)c(OC(C)=O)c(-c5ccc(OC(C)=O)cc5)c(OC(C)=O)c4OC(C)=O)cc3O[C@]2([C@@H](C)CC)C(=O)N1OC(C)=O`, the GI50 is reported as inactive: 12.7 µM.
`CCc1n[nH]c(=O)n1N=C(c1ccccc1)c1ccccc1` was tested, and the GI50 was inactive: > 100 µM.
With `Clc1cc(-c2csc(Cl)c2)cs1` the GI50 was inactive: > 100 µM.
`Cn1c(=S)c2nc(SCCN3CCCC3)[nH]c2n(C)c1=O` was tested, and the GI50 was inactive: > 100 µM.
`CCOC(=O)c1sc2c(C(=O)OCC)n3ccccc3c2c1N` was tested, and the GI50 was inactive: > 100 µM.
In the case of `O=c1ccn(-c2ccccn2)c(=O)n1-c1ccccn1`, the GI50 is reported as inactive: > 100 µM.
For `COc1ccc(/C=N/NC(=O)O)cc1`, the GI50 was inactive: > 100 µM.
For `COc1cc(C(C)c2cc3c(cc2OCCNC(=O)COc2cc4c(cc2C(C)c2cc(OC)c(OC)c(OC)c2)OCO4)OCO3)cc(OC)c1OC` (stereo not drawn), the GI50 was inactive: > 100 µM.
For `C=C(C)C1=CCC[C@]2(C1)N=C(OC)[C@@H](C(C)C)N=C2OC`, the GI50 was inactive: > 100 µM.
For `c1ccc(OCc2nnc3n2N=C(c2ccccc2)CS3)cc1`, the GI50 was inactive: > 100 µM.
`COc1cccc(-c2cc(O)c3cc(N(C)C)ccc3n2)c1` was tested, and the GI50 was active: 52.2 nM and active: 49.3 nM.
For `O=C1NC2CCCCC2N=C1CC(=O)c1ccc(Br)cc1` (stereo not drawn), the GI50 was inactive: > 100 µM.
`CC1=NC=C(O)c2ccccc2O1` was tested, and the GI50 was inactive: > 100 µM.
In the case of `Ic1ccc2c(c1)N(c1ccccc1)c1cc([N-]c3ccc4nc5ccc(I)cc5[n+](-c5ccccc5)c4c3)ccc1N2`, the GI50 is reported as inactive: > 100 µM.
For `C[n+]1c2ccccc2c(/C=N\NS(=O)(=O)c2ccc(O)c(C(=O)O)c2)c2ccccc21`, the GI50 was inactive: 41.1 µM.
With `O=C(NCCCCl)c1c(O)c2ccccc2[nH]c1=O` the GI50 was inactive: > 100 µM.
`C[C@@H]1O[C@@H]2OCC[C@@H]2C2=C1C(=O)c1ccccc1C2=O` was tested, and the GI50 was inactive: 15.6 µM.
For `COc1ccc(/C=C2/C(=O)C(c3ccccc3)N(c3ccccc3)C2=O)cc1OC` (stereo not drawn), the GI50 was inactive: > 10 µM.
`CCCCCNC(=O)c1c(O)[nH]c(=S)[nH]c1=O` was tested, and the GI50 was inactive: > 100 µM.
For `N#Cc1c(N)[nH]c2ccc(Sc3ccccc3)cc12`, the GI50 was active: 0.573 µM.
In the case of `COC(=O)C(Cc1ccccc1)OC(=O)C(N)CC(=O)O` (stereo not drawn), the GI50 is reported as inactive: > 100 µM.
With `CCOC(=O)C(C(=O)OCC)=C1NC2(c3ccccc3Nc3ccc(C)cc32)C(C(=O)OC)S1` (stereo not drawn) the GI50 was inactive: 75.3 µM.
In the case of `CC(=O)N1N=C(c2cc(C)ccc2O)CC1c1cccc(Cl)c1` (stereo not drawn), the GI50 is reported as inactive: 24.8 µM.
`[N-]=[N+]=NC[C@H]1OCO[C@H](CN=[N+]=[N-])[C@@H](OCCOCCCl)[C@@H]1OCCOCCCl` was tested, and the GI50 was inactive: > 100 µM.
In the case of `O=C(/C=C/C1C(=O)NC(=O)NC1=O)CC(=O)C(=O)Nc1cc(Cl)c(Cl)cc1Cl`, the GI50 is reported as inactive: > 100 µM.
In the case of `Cc1ccc(S(=O)(=O)NC(=O)C2(Br)S(=O)(=O)OCCOS2(=O)=O)cc1`, the GI50 is reported as inactive: > 100 µM.
`CCOC(=O)N1CCNCCN(C(=O)OCC)CCNCC1` was tested, and the GI50 was inactive: > 100 µM.
In the case of `O=C1CC(=O)c2c(Cl)sc(Cl)c21`, the GI50 is reported as inactive: > 100 µM.
For `COCN1C(=O)[C@@H]2CCCN2C(=O)c2cc(N)ccc21`, the GI50 was inactive: > 100 µM.
In the case of `O=c1c2cnccc2cc2c3ccccc3ccn12`, the GI50 is reported as inactive: 91.8 µM.
With `C#CC1(O)CCCCCCCCC2(CCCCCCCC1)OCCO2` the GI50 was inactive: 20.2 µM.
For `CC1(CO)COC(C)(C)OC1`, the GI50 was inactive: > 100 µM.
`COc1ccccc1NC(=O)CC(=O)N1N=C(c2ccccc2)C(/N=N/c2ccc(Cl)cc2)C1=O` (stereo not drawn) was tested, and the GI50 was inactive: 53.1 µM.
With `O=c1oc(C(C(F)(F)F)C(F)(F)F)nc2ccccc12` the GI50 was inactive: > 100 µM.
In the case of `CSC(=S)N(C)c1nc(N(C)C)s[s+]1`, the GI50 is reported as inactive: > 100 µM.
With `O=C(Cn1ccc(=O)[nH]c1=O)Nc1ccc(C(=O)O)c(O)c1` the GI50 was inactive: > 100 µM.
In the case of `Cc1ccc(C)c(NC(=O)NCc2ccc(Cl)cc2)c1`, the GI50 is reported as inactive: > 100 µM.
In the case of `CCOc1ccc(/C=C2/C(=O)N/C(=N\C(C)=O)N2C)cc1`, the GI50 is reported as inactive: > 100 µM.
For `CC12CCC([C@H](Nc3cc(C(F)(F)F)cc(C(F)(F)F)c3)C1=O)C2(C)C` (stereo partly drawn), the GI50 was inactive: > 100 µM.
For `C[C@H]1[C@H](C)CC[C@]2(C(=O)O)CCC3(COC(=O)/C=C/c4ccc(O)cc4)C(=CCC4[C@@]5(C)CC[C@H](O)C(C)(C)C5CC[C@]43C)[C@H]12` (stereo partly drawn), the GI50 was inactive: 4.15 µM.
In the case of `O=[N+]([O-])C(=C(\Cl)NCCO)/C(Cl)=C(/Cl)Br`, the GI50 is reported as inactive: 14.9 µM.
With `N=C(N)NCCCC(NCc1c2ccccc2nc2ccccc12)C(=O)O` (stereo not drawn) the GI50 was inactive: > 70.1 µM.
`COc1cccc(/C=C2\CCCc3ccccc3C2=O)c1` was tested, and the GI50 was inactive: 19.2 µM.
`C#CCCCCC#Cc1ccccc1C(=O)OC` was tested, and the GI50 was inactive: > 100 µM.
For `CN(C)/C=N\c1nc(=O)n(C2CCC(CO)O2)cc1F` (stereo not drawn), the GI50 was inactive: > 100 µM.
For `CCOC(=O)CNC(=O)N(CC)C12CC3CC(CC(C3)C1)C2`, the GI50 was inactive: 171 µM.
`CCc1n[nH]c(=O)n1/N=C/c1ccccc1O` was tested, and the GI50 was inactive: > 100 µM.
For `COC(=O)/C=C1/SC(/C(=C(/[O-])OC)[n+]2ccc3ccccc3c2)=NC1=O`, the GI50 was inactive: > 100 µM.
In the case of `COc1ccc(C(C#N)Cc2cc(OC)c(OC)c(OC)c2)cc1` (stereo not drawn), the GI50 is reported as inactive: 78 µM.
With `CC(N)Cc1ccc(F)cc1` (stereo not drawn) the GI50 was inactive: > 100 µM.
For `Nc1nc(N)c2c(CCc3ccc(C(=O)N[C@@H](CCC(=O)O)C(=O)O)cc3)ccnc2n1`, the GI50 was active: 0.245 µM.
`CCOc1cc(/C=C/C=C/C=C/c2ccc(N(C)C)cc2)[s+]c2ccccc12` was tested, and the GI50 was inactive: 34.1 µM.
For `CC(C)(CO)CNc1nc(N)nc(Cl)c1C=O`, the GI50 was inactive: 27 µM.
`COc1ccc(/C=C2\c3cc(OC)c(OC)cc3CCN2C(=O)c2ccccc2)cc1OC` was tested, and the GI50 was inactive: > 100 µM.
With `COc1ccc(OC)c2sc(N3C(=O)/C(=C/Cc4ccco4)N=C3c3ccccc3)nc12` the GI50 was inactive: > 100 µM.
For `Cn1c(-c2ccco2)ccc1-c1ccc(C=O)o1`, the GI50 was inactive: > 100 µM.
For `COc1ccc2c(c1)C1=NCCN(CCO)c3ccc([N+](=O)[O-])c(c31)N2`, the GI50 was active: 0.51 µM.
`COC(=O)CNC(=O)c1cc(C)cc2c1Oc1c(cc(C)cc1C(=O)NCC(=O)OC)S2` was tested, and the GI50 was inactive: 31.4 µM.
`O=C(NNc1ccccc1)c1ccc(Cl)c(Cl)c1` was tested, and the GI50 was inactive: 12.1 µM.
With `N#CC(c1ccc(O)cc1)N1CCN(C(C#N)c2ccc(O)cc2)CC1` (stereo not drawn) the GI50 was inactive: > 56.5 µM.
For `CCCCCCCCCCCCCCCCCCNc1ccn(C2OC(COP(=O)(O)OCC3OC(n4ccc(NC(=O)CCCCCCCCCCCCCCCCC)nc4=O)C(OC(C)=O)C3OC(C)=O)C(OC(C)=O)C2OC(C)=O)c(=O)n1` (stereo not drawn), the GI50 was inactive: > 100 µM.
For `Cc1cc(O)nc(CNC(=O)Cc2ccccc2)n1`, the GI50 was inactive: > 100 µM.
With `CN1Cc2ccccc2/C=C\c2ccccc21` the GI50 was inactive: > 100 µM.
In the case of `CCOC(=O)C(Cc1ccc(N(CCCl)CCCl)cc1)NC(=O)C(Cc1ccccc1)NC=O` (stereo not drawn), the GI50 is reported as active: 0.34 µM.
In the case of `COC(=O)/C(=N/NC(C)(C)C)C(C(=O)C=C(C)C)C(=O)C(=O)Nc1ccc(Cl)cc1C` (stereo not drawn), the GI50 is reported as inactive: > 100 µM.
In the case of `CCCCCCC/C=C1\CCC(CN(C)C)C1=O` (stereo not drawn), the GI50 is reported as inactive: 18.5 µM.
In the case of `Cc1nc2sc3ccccc3n2c(=O)c1/N=N/c1ccc(Cl)cc1`, the GI50 is reported as inactive: > 100 µM.
